Screen size: about 39,000 compounds; about 220 (0.56%) showed activity. Some of the results follow.
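Further: static incubation at 37 °C against the wild-type strain, values averaged over two biological replicates.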

The subject of the test is Escherichia coli K-12 BW25113. The experiment in a line: relative growth (OD600 normalised to plate interquartile mean) (fraction); higher = less growth inhibition, active = 0.2 or less. The following applies: 50 µM; LB; incubation time: overnight (16-24 h).
Consider `C[C@@H]1CN([C@@H](C)CO)C(=O)c2cc(C#CCc3ccccc3)cnc2O[C@@H]1CN(C)C(=O)Cc1cccnc1`, for which the relative growth was inactive: 0.993.

`C[C@H](CO)N1C[C@H](C)[C@H](CN(C)C(=O)c2cnccn2)Oc2ncc(-c3cccc(C#N)c3)cc2C1=O`: the relative growth is inactive: 1.02.

On to `O=C([O-])C=CC(=O)[O-].[Fe+2]`, for which the relative growth was inactive: 1.04.

For `Cc1ccccc1[C@@H](c1ncccc1C)N(C)C(=O)C1CCN(CCOc2ccc(Cl)cc2Cl)CC1`, the relative growth is inactive: 1.01.

Turning to `COc1ccc(S(=O)(=O)Nc2cccc3c2O[C@H](CN(C)Cc2ccncc2)[C@@H](C)CN([C@@H](C)CO)C3=O)cc1`, the relative growth is inactive: 0.971.

On to `C[C@H](CO)N1C[C@H](C)[C@@H](CN(C)S(=O)(=O)c2ccc(F)cc2)Oc2cc(C#Cc3ccncc3)ccc2S1(=O)=O`, for which the relative growth is inactive: 1.03.

With `CC[C@@H](C[C@@H](O)[C@@H](C)[C@H]1CC[C@H]2C3=CC(=O)[C@H]4[C@H](C)[C@@H](OC(=O)c5ccccc5)CC[C@]4(C)[C@H]3CC[C@]12C)C(C)C`, the relative growth is inactive: 0.967.

For the compound `Cc1ccc(S(=O)(=O)N(C)C[C@H]2Oc3ccc(NC(=O)Cn4cnnn4)cc3C(=O)N([C@H](C)CO)C[C@H]2C)cc1`, the relative growth is inactive: 1.

Consider `COc1ccc2c3c(n(c2c1)C)[C@H](CO)N(C[C@]13CCN(CC1)C(=O)CN1CCOCC1)C(=O)Nc1ccc(cc1)F`, for which the relative growth was inactive: 0.984.

For `C[C@H](CO)N1C[C@H](C)[C@H](CN(C)Cc2ccc3c(c2)OCO3)Oc2cc(C#CCN(C)C)ccc2S1(=O)=O`, the relative growth was inactive: 1.01.

As for `O=C(NO)c1cn(-c2cccc(C(=O)N3CCC4(CC3)C(=O)NCN4c3ccccc3)c2)nn1`, the relative growth was active: 0.0368.

Take `C[C@H](CO)N1C[C@H](C)[C@@H](CN(C)CC2CC2)Oc2c(NC(=O)Nc3cccc4ccccc34)cccc2C1=O`: the relative growth is inactive: 1.01.

`C[C@@H]1CN([C@@H](C)CO)C(=O)Cc2cc(NS(=O)(=O)c3cn(C)cn3)ccc2O[C@H]1CN(C)S(C)(=O)=O`: the relative growth is inactive: 0.986.

For `O=C(O)c1ccnc(N2CC(O)(c3ccc(OCc4c(-c5c(Cl)cccc5Cl)noc4C4CC4)cc3Cl)C2)c1`, the relative growth was inactive: 1.02.

Regarding `C=C1C(=O)N(OCC)c2ccccc2[NH+]1[O-]` (stereo unspecified), the relative growth is inactive: 1.

For the compound `C[C@@H]1CCCCO[C@@H](CN(C)S(=O)(=O)c2ccccc2)[C@@H](C)CN([C@H](C)CO)C(=O)c2cc(NC(=O)Nc3ccc(F)cc3)ccc2O1`, the relative growth is inactive: 1.02.

Take `COc1ccc(S(=O)(=O)Nc2ccc3c(c2)C(=O)N([C@@H](C)CO)C[C@@H](C)[C@@H](CN(C)C(=O)CCC(F)(F)F)OCCCC[C@@H](C)O3)cc1`: the relative growth is inactive: 0.986.

In the case of `COc1ccc(S(=O)(=O)Nc2ccc3c(c2)C(=O)N([C@H](C)CO)C[C@H](C)[C@H](CN(C)CC2CC2)O3)cc1`, the relative growth was inactive: 1.01.

In the case of `C[C@H](CO)N1C[C@H](C)[C@@H](CN(C)C(=O)CN2CCOCC2)Oc2ncc(/C=C/c3ccccc3)cc2C1=O`, the relative growth was inactive: 0.995.

As for `C[C@@H]1CCCCO[C@@H](CN(C)Cc2ccc(C(=O)O)cc2)[C@H](C)CN([C@@H](C)CO)C(=O)c2cc(NC(=O)CCC(F)(F)F)ccc2O1`, the relative growth was inactive: 1.03.

As for `COCC#Cc1cnc2c(c1)C(=O)N([C@H](C)CO)C[C@H](C)[C@H](CN(C)C(=O)Nc1ccc(OC)cc1)O2`, the relative growth was inactive: 1.

`C[C@@H]1CCCCO[C@H](CN(C)Cc2ccc3c(c2)OCO3)[C@H](C)CN([C@@H](C)CO)C(=O)c2cc(NS(=O)(=O)c3ccc(Cl)cc3)ccc2O1`: the relative growth was inactive: 0.98.

On to `CC(C)(C)[S@@](=O)N1Cc2cc(C(=O)N3CCc4ccccc4C3)nc(-c3cccc(-c4ccncc4)c3)c2[C@H]1CCO`, for which the relative growth is inactive: 0.961.

Take `Nc1nnc(CNC(=O)c2ccccc2)[nH]1`: the relative growth was inactive: 1.05.

Regarding `C[C@@H]1CCCCO[C@@H](CN(C)C(=O)c2ccccc2)[C@H](C)CN([C@@H](C)CO)C(=O)c2cc(NS(=O)(=O)c3cccs3)ccc2O1`, the relative growth was inactive: 0.999.

Turning to `Cc1noc(C)c1NC(=O)Nc1ccc2c(c1)CC(=O)N([C@@H](C)CO)C[C@H](C)[C@H](CN(C)Cc1ccc(C(F)(F)F)cc1)O2`, the relative growth is inactive: 0.958.

As to `Nc1ccccc1C(=O)N[C@H]1CCCCNC1=O`, the relative growth was inactive: 0.968.

Take `CN(C)CC(=O)N[C@H]1C=C[C@@H](CC(=O)NCCN2CCCCC2)O[C@H]1CO`: the relative growth was inactive: 0.932.

For the compound `Cc1ccc(S(=O)(=O)Nc2ccc3c(c2)CC(=O)N([C@H](C)CO)C[C@@H](C)[C@@H](CN(C)S(=O)(=O)c2cccs2)O3)cc1`, the relative growth is inactive: 1.01.

In the case of `Cn1cnc2c1[C@H](C(=O)N1CCN(c3ccccc3)CC1)N(S(C)(=O)=O)CC2`, the relative growth is inactive: 1.01.

For `CC(C)NC(=O)Nc1ccc2c(c1)C(=O)N([C@@H](C)CO)C[C@@H](C)[C@@H](CN(C)S(=O)(=O)c1cccs1)O2`, the relative growth is inactive: 0.997.

With `CN1CCCCC[C@@H]1C(=O)O`, the relative growth is inactive: 1.01.

On to `C[C@@H]1CN([C@@H](C)CO)C(=O)c2cc(NC(=O)Nc3cccc4ccccc34)ccc2O[C@H]1CN(C)Cc1ccc2c(c1)OCO2`, for which the relative growth was inactive: 0.987.

In the case of `COc1cc(OC)c(C(C)=O)c(O)c1C`, the relative growth is inactive: 0.941.

With `C[C@@H]1CCCCO[C@H](CN(C)C(=O)Nc2cccc3ccccc23)[C@@H](C)CN([C@H](C)CO)C(=O)c2cc(NC(=O)Cc3ccccc3)ccc2O1`, the relative growth was inactive: 1.03.

As to `C[C@@H]1CCn2cc(nn2)COC[C@@H](Cc2ccccc2)NC(=O)[C@H](C)CCn2cc(nn2)COC[C@@H](Cc2ccccc2)NC1=O`, the relative growth is inactive: 0.997.

Consider `CC=Cc1ccc2n(c1=O)C[C@H]1[C@H](CO)[C@@H](C(=O)NCCCN3CCOCC3)[C@@H]2N1Cc1cocn1`, for which the relative growth is inactive: 0.973.

With `O=c1[nH]c(=O)n(C2CC(O)C(CO)O2)cc1C(F)(F)F` (stereo unspecified), the relative growth was inactive: 0.956.

For `C[C@@H]1CN([C@H](C)CO)C(=O)Cc2cc(NS(=O)(=O)c3cccs3)ccc2O[C@H]1CN(C)C(=O)Nc1cccc2ccccc12`, the relative growth was inactive: 0.988.

Turning to `CN1C(C)(C)CCCC1(C)C`, the relative growth was inactive: 0.979.

In the case of `Nc1nonc1C(=O)N1CCCCC1`, the relative growth is inactive: 1.02.

The values are drawn from the supplement of paper PMC9446081.
